The full ranking holds about 110,000 compounds; the median of “z-score” is about -0.1, and the highest 2% start at about 2. The list shows a part of the results. Active and inactive are the calls of the source.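 The calls were made as follows: active = z-score in the third read window above 3 or below -3; inactive = the rest.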

The assay has as its target Metabotropic glutamate receptor 8 (Rattus norvegicus) (UniProt P70579). The experiment in a line: mGluR8 Gi/Go-coupled signaling modulation – cell-based, rat, thallium flux, HTS, primary screen (AID 488969). The conditions noted are these: HEK293 rat mGluR8, GIRK (G protein-gated inwardly rectifying potassium channel) thallium flux, FluoZin2; at 10 µM; stronger effect = higher value; submaximal glutamate (EC20) added with thallium.
UniProt P70579, sequence (P70579 whole entry, looked up): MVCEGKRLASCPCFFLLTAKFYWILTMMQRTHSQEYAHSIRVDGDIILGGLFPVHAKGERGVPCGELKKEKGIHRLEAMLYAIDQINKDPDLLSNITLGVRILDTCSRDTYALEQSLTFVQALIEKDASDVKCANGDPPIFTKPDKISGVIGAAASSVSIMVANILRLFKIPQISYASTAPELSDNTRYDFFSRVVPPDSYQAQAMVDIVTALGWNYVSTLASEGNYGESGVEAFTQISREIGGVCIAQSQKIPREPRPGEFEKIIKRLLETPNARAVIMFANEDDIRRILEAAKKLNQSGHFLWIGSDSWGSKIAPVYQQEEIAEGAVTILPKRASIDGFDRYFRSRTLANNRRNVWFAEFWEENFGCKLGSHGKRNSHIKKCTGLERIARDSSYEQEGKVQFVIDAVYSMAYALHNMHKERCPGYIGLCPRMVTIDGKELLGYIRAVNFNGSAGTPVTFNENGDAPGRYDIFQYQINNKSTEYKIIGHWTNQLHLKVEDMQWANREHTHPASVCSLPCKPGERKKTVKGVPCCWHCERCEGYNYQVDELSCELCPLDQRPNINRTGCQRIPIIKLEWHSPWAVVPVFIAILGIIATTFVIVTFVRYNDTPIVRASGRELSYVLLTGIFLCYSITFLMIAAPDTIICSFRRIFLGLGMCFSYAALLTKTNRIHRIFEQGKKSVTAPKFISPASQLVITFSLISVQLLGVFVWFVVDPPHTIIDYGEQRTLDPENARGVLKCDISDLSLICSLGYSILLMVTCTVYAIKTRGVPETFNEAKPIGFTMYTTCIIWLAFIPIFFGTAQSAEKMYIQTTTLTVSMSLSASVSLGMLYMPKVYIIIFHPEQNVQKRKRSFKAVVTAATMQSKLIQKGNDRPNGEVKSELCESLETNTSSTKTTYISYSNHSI
For the compound `C/C(=C\C(=O)c1ccc(Cl)cc1)Nc1ccc(Br)cc1`, the z-score is -0.278. To `CC(C)(C)c1ccc(OCc2ccc(C(=O)N/N=C3\CC4CC=CC34)cc2)cc1` (stereo not given) belongs -0.0236; to `O=C(COc1ccc2c(c1)CCC2)N1CCN(c2cccc(C(F)(F)F)c2)CC1`, -0.0515; to `CCN(CC)CC(=O)NC12CC3CC(CC(C3)C1)C2`, 2.42.

`O=C(Nc1nc(-c2ccc(Cl)cc2Cl)cs1)C1CCCO1` (stereo not given) returned a z-score of -0.0446. Compound `CC(=O)Nc1cccc(Oc2cc(C#N)c(C#N)cc2N2CCCCCC2)c1` had a z-score of 2.07. The figure for `CCc1nnc(NC(=O)Cn2c(=O)oc3ccccc32)s1` is 0.749; for `Cc1cc(/C=C(\C#N)C(=O)NCc2cccs2)c(C)n1-c1ccccc1F` it is -0.0698. `Cc1ccc(C)c(N2CCN(c3nnnn3-c3ccccc3)CC2)c1` had a z-score of -0.403. To `CC1CC(C)(C)N(C(=O)NC2CCCCC2)c2ccccc21` (stereo not given) belongs -1.44; to `Cc1cc(NC(=O)CN2C(=O)NC(Cc3ccccc3)C2=O)no1` (stereo not given), -0.793. To `COc1ccc(C(CC(=O)O)NC(=O)COc2ccccc2)cc1OC` (stereo not given) belongs 0.951. The figure for `C1=C(CCNc2nnnn2-c2ccccc2)CCCC1` is -0.26; for `CCOC(=O)c1ccc(NC(=S)Nc2cccc(C)n2)cc1` it is -0.176; for `CCC(C)C(=O)Nc1nc(C)c(-c2csc(Nc3ccccc3OC)n2)s1` (stereo not given) it is -0.407.

The compound `Nc1ccccc1C(=O)N/N=C1\C2CN3CCN(C2)CC1(c1ccccc1)C3` came in with a z-score of -0.0799. The compound `FCCCOc1ccc(/C=N/OCc2c(Cl)cccc2Cl)cc1` yielded a z-score of -0.198. To `N#CC1=C(N)Nc2ncnn2C1c1ccc(F)cc1` (stereo not given) belongs 0.149; to `CCOC(=O)c1c(NC(=O)CN2CCN(C(=O)c3ccco3)CC2)sc2c1CCCC2`, -0.407; to `CC(C)(C)OC(=O)Cn1c(=O)cnc2ccccc21`, 0.105.

For the compound `CC1CC(C)CN(C(=O)c2ccc3c(c2NCCO)C(=O)c2ccccc2C3=O)C1` (stereo not given), the z-score was -0.365. To `CCOC(=O)c1c(NC(=O)CSc2nnnn2-c2ccc(OC)cc2)sc(C)c1C` belongs -0.106; to `Cc1nn(Cc2ccccc2)c2sc(C(=O)NCc3cccnc3)cc12`, 0.369; to `CC1(C)Cc2nc3sc4c(SCC(=O)NC(c5ccccc5)c5ccccc5)ncnc4c3cc2CO1`, 0.0674.

With `Cc1[nH]n(-c2ccc(Cl)cc2)c(=O)c1C=Nc1ccc(S(=O)(=O)N2CCOCC2)cc1`, the z-score is -0.806. To `CCCCOc1ccc(C(=O)NCC2(c3ccccc3)CCOCC2)cc1` belongs -0.0411; to `Cc1cc(Nc2ccc(F)cc2)n2nc(C)nc2n1`, 0.137; to `CC(C)(CCl)C(=O)Nc1ccc(Sc2ccc(F)cc2)cc1`, 0.562. As to `CCn1c2ccccc2c2nnc(SCC(=O)Nc3c(C)n(C)n(-c4ccccc4)c3=O)nc21`, the z-score was -0.616.

`CCOC(=O)c1cc2sccc2n1Cc1ccccc1` gave a z-score of 0.0394.

`O=C1OC(c2ccccc2)=C/C1=C\N1CCOCC1`: the z-score was determined as 0.172.

For `CCOC(=O)c1cnn2c(N)c(C#N)nnc12`, the z-score came to 0.128.

The compound `Cc1nc2nc(COc3ccccc3)[nH]n2c(=O)c1Cl` gave a z-score of -0.0144. Regarding `COc1ccc(OCCOC(=O)c2cccc(-n3cnnn3)c2)cc1`, the z-score was -0.341. The figure for `Cn1c(=O)c2ncn(CC(=O)Nc3cc(C(F)(F)F)ccc3N3CCOCC3)c2n(C)c1=O` is -0.158. The figure for `CS(=O)(=O)N(Cc1ccccc1)c1ccc(C(=O)Nc2ccc3c(c2)OCO3)cc1` is -0.0352; for `COc1ccc(-c2c(C)nn3c(N4CCN(Cc5ccccc5)CC4)cc(C)nc23)cc1OC` it is -0.3; for `Cn1c(-c2ccc(F)cc2)cnc1SCC(=O)NCc1ccco1` it is 1.12.

The compound `CCOC(=O)C1=NN(c2ccc(C)cc2)C2(S1)SC(C(C)=O)=C(C)N2c1ccccc1` (stereo not given) gave a z-score of 0.0798. To `O=C(CNC(=O)c1cccc(F)c1)OCC(=O)N1CCCCC1` belongs -0.0833; to `CCOC(=O)N1CCC(Nc2c(NCCN3CCN(c4ccccc4F)CC3)c(=O)c2=O)CC1`, -0.365; to `COc1ccc(/C(C)=N/OCC(=O)Nc2nc3ccccc3s2)cc1`, -0.36. To `Cn1ncc([N+](=O)[O-])c1C(=O)Nc1ccn(Cc2ccccc2F)n1` belongs -0.0448; to `CCn1c(COc2ccc(=O)n(-c3ccccc3)n2)nnc1SCc1ccccc1`, -0.582. In turn, `COc1ccc(NC(=O)NCc2cccn2C)c(OC)c1` yielded a z-score of -0.0951.

`O=C(Nc1ccc(F)c(Cl)c1)C1CCN(S(=O)(=O)c2cccnc2)CC1` gave a z-score of -0.424.

In the case of `COc1ccc(CNC(=O)C2C3C=CC4(CN(Cc5cccnc5)C(=O)C24)O3)cc1` (stereo not given), the z-score was -0.0389. The figure for `Cc1ccc(-c2csc(NC(=O)CSC3=NCCS3)n2)cc1` is 0.0209; for `COc1ccc2c(c1)Cc1sc(NC(=O)c3ccccc3)nc1-2` it is 0.132. To `O=C(CSc1nnc(Cc2ccccc2)n1-c1ccc(F)cc1)N1CCOCC1` belongs 0.477. The figure for `Cc1ccc(Cn2cc(/C=N/Nc3ccc([N+](=O)[O-])cn3)c3ccccc32)cc1` is 0.407. Consider `COc1cccc(-c2nnn(CC(=O)O)n2)c1`, for which the z-score is 0.0347. Regarding `CCOC(=O)CSc1nc2sc3c(c2c(=O)[nH]1)CC(C)(CC)OC3` (stereo not given), the z-score was -0.983.

`CN1C(=O)N(C)C2CC1N(C)C(=O)N2C` yielded a z-score of -0.227. Consider `COc1ccc(-c2cc(C(F)F)nc(-n3nc(C)cc3C)n2)cc1`, for which the z-score is -0.32. The figure for `COc1ccccc1N1CCN(C(=O)c2cn(-c3ccccc3)nc2-c2cccnc2)CC1` is -0.689. To `COc1ccc(-c2nc(-c3cccs3)c(-c3cccs3)[nH]2)cc1OC` belongs -0.537; to `N#CCSc1nc(N)c(C#N)c(C2CCCCC2)c1C#N`, -0.112.

For the compound `NS(=O)(=O)c1ccc(NC(=O)C2COc3ccccc3O2)cc1` (stereo not given), the z-score was active: -3.14. With `COCCNC(=O)C(=O)Nc1cccc(Br)c1`, the z-score is -0.149. The figure for `COc1ccc(Br)cc1/C=N/NC(=O)c1nc(-c2ccccc2)n2c1CCCCC2` is -0.0756; for `O=C(C1CCN(S(=O)(=O)c2ccc(Br)s2)CC1)N1CCc2ccccc21` it is -0.362. The figure for `Cc1cccc(OCc2nnc(SCC(=O)NCCc3ccccc3)o2)c1` is 0.313; for `Cc1noc(C)c1CSCC(=O)NC1=NCCS1` it is -0.333; for `COc1cc(/C=C/C(=O)Nc2cc(C(F)(F)F)ccc2Cl)cc(OC)c1OC` it is -0.338. To `COc1ccc(/C=N/Nc2cc(C)nc(N)n2)cc1` belongs 0.00932. Consider `CCOC(=O)c1c(-c2ccc(Cl)cc2)c(C#N)c(=O)n(N)c1N`, for which the z-score was -0.497.

Regarding `O=C1OC(N2CCN(Cc3ccccc3)CC2)c2ccccc21` (stereo not given), the z-score came out at 0.332. To `COc1ccc(-c2ncncc2-c2csc(C)n2)c(O)c1OC` belongs -0.116. The figure for `CCOC(=O)C1=C(CSc2nc3c(cc2C#N)CCC3)OC(N)=C(C#N)C1c1ccccc1` (stereo not given) is 0.259; for `CCc1nnc(NC(=O)[C@@H](NC(=O)c2cccc(S(=O)(=O)N(CC)CC)c2)C(C)C)s1` it is -1.2.

Compound `COC(=O)c1cc(NC(=O)c2ccc(Cn3cc(Cl)cn3)o2)cc(C(=O)OC)c1` registered a z-score of -0.37. To `COc1ccccc1CNC(=O)C1CC(c2c(Cl)cccc2Cl)=NO1` (stereo not given) belongs -0.231; to `Cc1cc(C)n(Cc2nc3ccccc3n2C)n1`, -0.157. Compound `Cc1ccc[n+](C(C)C(=O)Nc2ccc(C)c([N+](=O)[O-])c2)c1` (stereo not given) showed a z-score of -0.0738. To `CCOC(=O)c1cc(-c2ccc3c(c2)OCO3)nc2onc(C)c12` belongs 0.323. Compound `CCN1CCN(C(=O)c2cc3cc4ccc(OC)cc4nc3s2)CC1` returned a z-score of 0.148. The figure for `COCCCn1c(=N)c(C(=O)NCc2ccc3c(c2)OCO3)cc2c(=O)n3ccccc3nc21` is -0.494; for `NC(=O)c1ccc(NC(=O)COC(=O)CC(NC(=O)c2ccccc2Cl)c2ccccc2)cc1` (stereo not given) it is 1.26. The figure for `Cc1ccc(/C([O-])=C(/C(=S)NCc2ccco2)[n+]2ccccc2)cc1` is -0.112. To `CSCCNC(=O)c1ccc(C(C)(C)C)cc1` belongs -0.121; to `Cc1ccc(C(C(=O)NC2CCCC2)N(Cc2cccs2)C(=O)c2csnn2)o1` (stereo not given), 0.328. In the case of `O=C(Nc1ccc(Cl)cn1)c1ccc2ccccc2n1`, the z-score is -0.314. The figure for `CCN1CCCC1CNC(=O)C(=O)Nc1ccccc1OC` (stereo not given) is 0.00956. The figure for `CC1CCCCN1CC(=O)NC(=O)NCc1ccccc1` (stereo not given) is -0.261; for `COc1ccc(S(=O)(=O)N2CCOCC2)cc1OC` it is 0.00146; for `COc1ccc(NC(=O)CN(c2ccc(C)cc2)S(C)(=O)=O)c(OC)c1` it is -0.155.

`Nc1cc(Cl)nc(N/N=C/c2ccc([N+](=O)[O-])cc2)n1` had a z-score of -0.0913. Compound `CCC1(CC)Cc2ccccc2-c2nc(NCCO)[nH]c(=O)c21` had a z-score of -0.365. To `CCn1cc(C(=O)NCc2ccccc2)c(=O)c2cc(F)c(N3CCN(C(=O)c4ccco4)CC3)cc21` belongs -0.668. The figure for `CN1CCN(C(=S)c2ccc(N(C)C)cc2)CC1` is -0.222; for `CCOC(=O)CC(=O)CSc1nc(N)c(C#N)c(-c2ccc(F)cc2)c1C#N` it is -0.328. `O=C(NNc1cccc(Cl)n1)Nc1ccccc1Cl` displayed a z-score of 0.0179. The figure for `COc1ccc(OC)c(C2NC(=O)NC(C)=C2C(=O)Nc2ccc(C)cc2C)c1` (stereo not given) is 0.112; for `Cc1cccc(CC2SC(N3CCN(c4ccccc4)CC3)=NC2=O)c1` (stereo not given) it is -0.218. The figure for `O=C(CSc1ncnc2c1cnn2-c1ccccc1)Nc1ccccc1` is -0.0107.

On to `CCOC(=O)c1c(/N=C/C2C(=O)CCCC2=O)sc(C)c1C`, for which the z-score was -0.157. To `Cc1ccc(C(=O)N(Cc2nc(-c3ccc(C)cc3)no2)C(C)C)cc1` belongs 0.444.

Turning to `COc1cccc(NC(=O)Nc2cc(C)ccc2F)c1`, the z-score was -0.527. Compound `CCOC(=O)c1nc(NCc2cccnc2)c2ccccc2n1` showed a z-score of -0.241. As for `CSc1nc(Oc2ccc3ccccc3c2)c2ccccc2n1`, the z-score was -0.191. As to `O=C(CCSc1nc(-c2ccco2)cc(C(F)(F)F)n1)N1CCN(c2ccccc2)CC1`, the z-score was -0.0512. `COCCCN(CCCN)Cc1ccco1` came in with a z-score of 0.224.

Turning to `CCOc1ccc(C2Sc3ccccc3NC3=C2C(=O)OC3)cc1` (stereo not given), the z-score was -0.1. The figure for `CC(=O)Nc1cccc(NC(=O)CSc2ccc(C(F)(F)F)cc2[N+](=O)[O-])c1` is -0.443. The figure for `CCOc1ccc(-c2nc(C#N)c(NCC3CCCO3)o2)cc1` (stereo not given) is -0.471.

`COc1ccc(/C=C(/NC(=O)c2ccccc2)C(=O)N/N=C/c2ccc3c(c2)OCO3)cc1OC`: the z-score is -0.129.

For the compound `CC1=C(C)/C(=N\OC(=O)/C=C/c2ccccc2)C=CC1=O`, the z-score is 0.0984. The figure for `COc1ccccc1C1(CC(=O)Nc2nccs2)CCOC(C(C)C)C1` (stereo not given) is -0.148.

On to `O=C(CSc1ccccc1Cl)NC1CCCc2ccccc21` (stereo not given), for which the z-score is -0.386.

(Values after PubChem BioAssay AID488969 (Vanderbilt High Throughput Screening Facility, 2010).)
